In article PMC6919601, “Identification of Plasmodium dipeptidyl aminopeptidase allosteric inhibitors by high throughput screening” (PLoS ONE, 2019):
The campaign covered roughly 110,000 compounds. About 230 (0.21%) showed an effect of 50% or more. This is one part of the list.

biological target: DPAP1 (Plasmodium falciparum, UniProt Q8IIJ9); experiment: primary screen, percent inhibition; read by cleavage of a fluorogenic dipeptide substrate; higher = more effect of the substance; design: species or system P. falciparum D10 trophozoite lysates; single well
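Note: 30 min substrate incubation versus DMSO and 10 µM JCP410 controls.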

DPAP1, sequence (Q8IIJ9 whole entry, looked up): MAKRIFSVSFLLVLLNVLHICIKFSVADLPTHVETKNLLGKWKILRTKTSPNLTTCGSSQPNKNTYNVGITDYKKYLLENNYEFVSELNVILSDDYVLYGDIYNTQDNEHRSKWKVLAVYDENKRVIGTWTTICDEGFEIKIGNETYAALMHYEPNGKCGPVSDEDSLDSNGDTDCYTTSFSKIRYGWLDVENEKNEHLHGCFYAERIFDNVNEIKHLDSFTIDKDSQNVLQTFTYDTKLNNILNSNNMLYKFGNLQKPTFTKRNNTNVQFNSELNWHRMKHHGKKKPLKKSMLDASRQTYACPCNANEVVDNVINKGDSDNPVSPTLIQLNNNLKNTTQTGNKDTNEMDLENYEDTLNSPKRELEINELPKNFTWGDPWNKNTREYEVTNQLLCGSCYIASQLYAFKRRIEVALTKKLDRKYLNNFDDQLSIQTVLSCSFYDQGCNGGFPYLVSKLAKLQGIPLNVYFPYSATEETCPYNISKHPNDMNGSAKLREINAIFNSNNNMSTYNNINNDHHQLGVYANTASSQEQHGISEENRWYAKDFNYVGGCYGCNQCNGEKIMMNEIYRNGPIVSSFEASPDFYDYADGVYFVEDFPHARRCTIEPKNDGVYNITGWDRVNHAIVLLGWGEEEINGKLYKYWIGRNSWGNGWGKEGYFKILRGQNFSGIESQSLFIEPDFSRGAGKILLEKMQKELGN

Structure (SMILES)	% Inhibition @ 10 uM [%]
CN1C(=O)C(=Cc2ccc(SC3CCCCC3)o2)C(=O)N(C)C1=O	0.458
Cc1cccc(C)c1N1C(=O)C2CC=CCC2C1=O (stereo not drawn)	-5.13
COc1ccc(C(O)C(C)NC(C)C(O)c2ccc(OC)cc2)cc1 (stereo not drawn)	2.76
CCn1c(CN2CCN(C(=O)c3ccco3)CC2)nc2c1c(=O)n(C)c(=O)n2C	-0.499
COc1ccc(Cl)cc1N(CC(=O)Nc1ccc2c(c1)OCO2)S(=O)(=O)c1ccccc1	-2.44
Cc1cc(C)c(C)c(OCCCN2CCOCC2)c1	-5.84
CN1CCN(CCCNC(=O)c2ccc(CS(=O)(=O)c3ccc(Br)cc3)o2)CC1	0.458
COc1cc(C(=O)Nc2cccc(O)c2)cc(OC)c1OC	-6.82
Cc1noc(/C=C/c2cccs2)c1S(=O)(=O)N1CCC(C(=O)NC2CCCCC2)CC1	-3.09
CC1=C(C(=O)Nc2ccccc2)C(c2ccc(C)o2)n2c(s/c(=C/c3ccco3)c2=O)=N1 (stereo not drawn)	3.05
CCC(C)NC(=O)c1ccccc1NC(=O)CN(c1cc(Cl)ccc1C)S(C)(=O)=O (stereo not drawn)	-11.2
CC(CNC(=O)C1CCN(c2nnc(N3CCCC3=O)s2)CC1)c1ccccc1 (stereo not drawn)	0.623
Cn1c(Nc2cccc(Cl)c2)cc(=O)n(C)c1=O	-6.83
CC1CCCCN1C(=O)c1cccc2c1SCCC2=O (stereo not drawn)	-7.32
CCn1c(C(=O)N2CCC(C(=O)NC(C)C34CC5CC(CC(C5)C3)C4)CC2)cc2sccc21 (stereo not drawn)	0.137
COc1ccc(CC(=O)Nc2cccc3c(NC(=O)Cc4ccc(OC)cc4)cccc23)cc1	2.27
CC1Cn2c(C(=O)N3CCc4ccccc4C3)cc3c(Cl)ccc(c32)O1 (stereo not drawn)	4.83
COc1ccc(/C=C2\CCCC3=C2OC(N)=C(C#N)C3c2ccc(OC)cc2)cc1 (stereo not drawn)	-0.988
Cc1nc2ccccn2c1C(=O)NC1CCCCC1	3.01
Cc1ccc(C(C#N)NC(=O)[C@H](CC(C)C)NC(=O)c2ccc(OC(F)(F)F)cc2)o1 (stereo partly drawn)	-1.41
CC1=CC(C(F)(F)F)(C(F)(F)F)C(C#N)=C(N)N1c1ccc(C(N)=O)cc1	1.02
CCn1c(COc2ccccc2C(N)=O)nc2ccccc21	-5.4
CCCN1CCC(N(C)CC(O)c2ccccc2)CC1 (stereo not drawn)	-3.15
Cc1c(C(=O)Nc2ccc(F)cc2)cccc1[N+](=O)[O-]	4.03
COc1cccc(/C(O)=C/c2nc3ccc(C(=O)N4CCOCC4)cc3nc2O)c1	-19.9

Structure (SMILES)	% Inhibition @ 10 uM [%]
Cc1ccc(S(=O)(=O)NCC(=O)N(C)Cc2ccccc2)cc1	5.99
CCN1CCN(CCNC(=O)CSCc2nc(-c3ccc(OC)c(OC)c3)oc2C)CC1	2.37
CC(C)CNC1CC(=O)N(c2ccc(C(C)C)cc2)C1=O (stereo not drawn)	4.75
O=C(COc1ccc([N+](=O)[O-])cc1)N1CCCCC1	11.4
O=C(Nc1nc2ccc(F)cc2s1)c1cccnc1	-4.49
CCOC(=O)c1cc(-c2ccccc2)n(-c2cccc(C(=O)N3CCCC3)c2)c1C	1.2
O=C(Cn1c2ccccc2c2cnnc(O)c21)NCCCc1ccccc1	-0.281
O=C(Nc1cnc2ccccc2c1)c1cccc(C(=O)Nc2cnc3ccccc3c2)c1	5.32
C=CCn1c(SCC(=O)Nc2ncc(Cc3ccc(Cl)cc3)s2)nnc1-c1ccncc1	1.03
Cc1ccc2onc(CNC(=O)NCCc3ccsc3)c2c1	-5.85
O=C(O)c1ccccc1C(=O)NCCc1ccccc1	-1.97
CC1CCc2c(C(=O)NCCCN(Cc3ccccc3)C(C)C)csc2C1 (stereo not drawn)	-5.05
COc1ccc(N(CC(=O)NC2CC3CCC2C3)S(=O)(=O)c2ccc(C)cc2)cc1Cl (stereo not drawn)	0.931
COc1ccc(OC)c(NC(=O)C2CCCCC2C(=O)O)c1 (stereo not drawn)	-7.46
N#Cc1c(NC(=O)C2CC=CCC2C(=O)O)sc2c1CCCCCC2 (stereo not drawn)	2.69
O=C(Cn1cc(C(=O)C(F)(F)F)c2cc(Br)ccc21)NC1CCCC1	2.19
CC(=O)/C=C/c1oc2ccc([N+](=O)[O-])cc2c1-c1ccc(C)o1	7.61
CCOc1ccc(C2C(=O)N(C3CCCCC3)CC(=O)N2CC2CCCO2)cc1OC (stereo not drawn)	-2.14
CC(C)Cn1cc(NC(=O)NCc2ccc3c(c2)OCO3)c2ccccc2c1=O	-3.45
O=C(NCc1ccc(F)cc1)c1ccc2c(Cl)c3c(nc2c1)CCC3	-2.19
O=C(CCc1ccc(S(=O)(=O)NC2CCCCC2)cc1)Nc1ccccc1	6.92
COCCN1C(=O)C(O)=C(C(=O)c2ccccc2)C1c1ccccc1OC (stereo not drawn)	3.04
CCC(CC)NCc1ccc(OC)c(C)c1OC	-8.36
Nc1ncnc(NCCc2ccccc2)n1	-3.53
Cc1nn(CCCC(=O)N2CCN(C)CC2)c(=O)c2cc3sccc3n12	-1.58

Structure (SMILES)	% Inhibition @ 10 uM [%]
CC(C)OCCCNC(=O)c1cnn(-c2ccccc2)c1-n1cccc1	0.137
[O-]/[N+](=C\c1cc(Br)ccc1O)c1ccccc1	-1.84
CCCn1c2ccccc2n2cc(-c3ccc(F)cc3)nc12	3.74
CCCCSC1=C(C#N)C(=O)NC(c2ccc(N(C)C)cc2)S1 (stereo not drawn)	7.04
Cc1oc(-c2ccc(Cl)cc2)nc1CS(=O)CC(=O)NCCCN1CC(C)CC(C)C1 (stereo not drawn)	2.37
COc1ccc(/C=N/N=C2/CC(C)(C)Cc3nnc(O)cc32)cc1	-1.47
CCCOc1cccc(C(=O)N(Cc2ccccc2F)C2CCS(=O)(=O)C2)c1 (stereo not drawn)	6.49
CNC(=O)C1CCN(c2nnc(C)c3c(C)n(-c4ccccc4)nc23)CC1	4.16
Cc1ccc(/C=C2\CCC(C3CCCC3)C2=O)o1 (stereo not drawn)	4.79
O=C(NCc1ccco1)c1cccnc1-c1nc2ccccc2s1	9.92
COCCN(Cc1ccco1)C(=O)CSc1c2c(nc3cc(Cl)ccc13)CCCC2	1.62
CCOC(=O)c1cc(-c2ccc(OC)c(S(=O)(=O)N3CCC(Cc4ccccc4)CC3)c2)on1	1.09
COc1cccc(-n2nnnc2SCC(=O)Nc2sc3c(c2C#N)CCC(C(C)(C)C)C3)c1 (stereo not drawn)	-5.96
CC1=C(C(=O)Nc2ccc(C)cc2)C(c2ccc(Cl)cc2)NC(=O)N1 (stereo not drawn)	-5.92
Cc1ccc(-c2c(N(C)C3CCCC(C)C3C)c(=O)c2=O)cc1 (stereo not drawn)	0.589
COc1cc(/C=C(\C#N)c2nc3ccccc3n2C)cc(Br)c1O	31.8
Cc1ccccc1-c1noc(-c2nnn(-c3ccc(F)c(Cl)c3)c2N)n1	-0.485
CS(=O)(=O)N(CC(=O)N1CCN(c2ccccc2)CC1)c1cccc(Br)c1	5.73
Cc1ccc(CNCc2cccnc2)cc1	-4.03
COc1ccc(C(=O)N2CCN(C3CCCC3)CC2)cc1OC	-11.1
CC1CC(C)CN(C(=O)Nc2cccc3ccccc23)C1 (stereo not drawn)	5.04
CC(C)CC/N=c1/c(-c2ccc(C(C)C)cc2)c(O)c1=O	0.0281
O=C(O)C1CCCN(C(=O)c2ccccc2)C1 (stereo not drawn)	3.27
COc1cccc2cc(C(N)=O)cnc12	6.38
COc1ccccc1NC(=O)c1cc(N)cc(C(=O)Nc2ccccc2OC)c1	0.0285

Structure (SMILES)	% Inhibition @ 10 uM [%]
O=C(Nc1cccc(-c2nc3ccccc3s2)c1)c1ccc(Br)cc1	5.35
O=C(c1ccncc1)N1N=C2CCCCCC2C1(O)C(F)(F)F (stereo not drawn)	-3.34
COCCCNC(=O)C1CC(=O)OC1c1ccc(OC)c(OC)c1 (stereo not drawn)	-2.92
CCOC(=O)/C(C#N)=C\c1ccc(C)cc1C	0.968
O=C1CC(SC2=NCCS2)C(=O)N1c1ccc(Br)cc1 (stereo not drawn)	-1.37
CC(C(=O)Nc1nccs1)N1Cc2ccccc2C1=O (stereo not drawn)	-2.13
CC1CCN(Cc2c(O)ccc3occ(C(=O)c4ccccc4)c23)CC1	2.46
CCOC(=O)c1c(C)[nH]c(C)c1S(=O)(=O)NCCCN1CCCC1=O	0.706
COCCNC(=O)c1ccc(CS(=O)(=O)Cc2ccc(C)cc2)o1	0.514
O=C(CNCc1ccccc1)NC12CC3CC(CC(C3)C1)C2	6.53
O=C(COc1ccc(Cl)cc1)Nc1ccccc1Br	-2.65
Cc1cc2cc(CNC(=S)NC3CCCCC3)ccc2n1C	-1.89
COc1ccc2c(Cl)c(C(=O)Nc3ccc(N(C)C(C)=O)cc3)sc2c1	5.83
Cc1cc(C)c(C(=O)c2ccc(C(=O)N3CCN(C)CC3)cc2)c(C)c1	0.215
CC(=O)N1CCc2nc3sc(C(=O)Nc4cc(C)on4)c(N)c3c(C(F)(F)F)c2C1	-3.34
O=C(C1CCC(=O)N1Cc1ccc(F)cc1)N1CCC2(CC1)OCCO2 (stereo not drawn)	-0.0542
O=C(O)CCc1nnc(O)c2[nH]c3ccc(Cl)cc3c12	1.81
CCOC(=O)c1cc(S(=O)(=O)N2CCN(Cc3ccccc3)CC2)cn1C	-2.84
O=C(Nc1ccccc1)Nc1cccc(C(F)(F)F)c1	1.33
Cc1ccc(-c2c(NCCN3CCN(Cc4ccccc4)CC3)c(=O)c2=O)cc1	-3.47
O=C(Nc1ccc(S(=O)(=O)Nc2cccc(F)c2)cc1)c1ccc(Br)o1	-3.39
Cc1ccccc1CCNC(=O)CCn1nc(C)c2c(C)n(-c3ccccc3)nc2c1=O	-4.38
O=c1c(CN2CCN(c3cccc(C(F)(F)F)c3)CC2)coc2ccccc12	-3.65
Cc1nnc(N2C(=O)c3oc4ccccc4c(=O)c3C2c2ccccc2F)s1 (stereo not drawn)	-7.38
